{"source": "PubChem BioAssay AID596", "about": "(National Center for Advancing Translational Sciences (NCATS), 2007)", "note": "“And” between values parts separate entries of the source, which are not always exact repeats. Equal entries are not always repeated. Among all 71,000 compounds or so, about 1,400 (2%) were called active. This list was built around the results that the source calls inconclusive (neither active nor inactive); the mix of calls is not that of the screen. Calls follow the shape of the dose curve; as a rule, active = well fitted curve in the direction sought with a large enough effect; inconclusive = small, poorly fitted or top-dose-only effect; inactive = no such curve, though single readings can be large or run the other way. Potencies of inconclusive entries are doubtful fits and often do not repeat. % is scaled to controls: 0 for no effect and ±100 for the full control effect; potency is read from the fitted curve at half-maximal effect."}
{"molecular_target": "Microtubule-associated protein tau (Homo sapiens) (UniProt P10636)", "sequence (P10636 whole entry, looked up)": "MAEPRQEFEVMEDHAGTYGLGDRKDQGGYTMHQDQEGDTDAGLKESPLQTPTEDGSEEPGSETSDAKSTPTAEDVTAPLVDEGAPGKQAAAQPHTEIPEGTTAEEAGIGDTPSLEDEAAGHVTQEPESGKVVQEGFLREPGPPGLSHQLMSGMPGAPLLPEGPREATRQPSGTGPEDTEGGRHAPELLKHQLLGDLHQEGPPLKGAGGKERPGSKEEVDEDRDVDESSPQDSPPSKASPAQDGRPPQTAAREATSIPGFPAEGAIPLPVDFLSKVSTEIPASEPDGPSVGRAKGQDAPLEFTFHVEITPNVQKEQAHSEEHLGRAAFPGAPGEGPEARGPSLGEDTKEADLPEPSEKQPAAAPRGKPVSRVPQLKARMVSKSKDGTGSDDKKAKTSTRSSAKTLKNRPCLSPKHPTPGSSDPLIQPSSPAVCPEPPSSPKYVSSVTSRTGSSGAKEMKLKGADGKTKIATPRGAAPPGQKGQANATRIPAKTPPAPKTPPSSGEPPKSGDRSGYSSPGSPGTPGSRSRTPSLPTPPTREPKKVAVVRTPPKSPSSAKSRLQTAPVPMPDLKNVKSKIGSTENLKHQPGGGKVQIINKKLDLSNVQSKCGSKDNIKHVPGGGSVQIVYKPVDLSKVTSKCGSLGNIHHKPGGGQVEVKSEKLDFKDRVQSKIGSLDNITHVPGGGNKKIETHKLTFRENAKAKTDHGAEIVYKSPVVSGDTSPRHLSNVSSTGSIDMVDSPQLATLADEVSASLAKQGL", "assay": "qHTS Assay for Tau Filament Binding;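 also: actives lower thioflavin S fluorescence by blocking filaments or displacing dye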", "settings": "recombinant tau filaments, thioflavin S fluorescence, 15 h, filaments grown with octadecylsulfate alongside compound; series mostly up to 57.1 µM", "excerpt": "NIH Molecular Libraries Screening Centers Network [MLSCN]\nNIH Chemical Genomics Center [NCGC]\nAssay Provider: Jeffrey A. Kuret, Ohio State University\nTau monomers form filaments in vitro in the presence of anionic detergents or fatty acids. The dye Thioflavine S (ThS) binds to tau filaments and upon binding, increases in fluorescence several fold. Small molecules that displace ThS binding or prevent filament binding are identified by a reduction in ThS fluorescence. This assay used histidine-tagged, recombinant human tau protein containing the products of exons 2, 3, and 10 that was provided by Jeff Kuret, Ohio State University. To form filaments, 1 uM tau was incubated with 30 uM sodium octadecylsulfate (ODS) in reagent buffer (10 uM thioflavine S, 5 mM 1,4-dithioerythreitol (DTT), 100 mM sodium chloride, 10 mM HEPES pH 7.4) for 15 hrs at 37 C.\nNCGC Assay Protocol Summary:\nAssay Steps. Two uL/well of 2 uM tau in reagent buffer (10 uM thioflavine S, 5 mM DTT, 100 mM sodium chloride, 10 mM HEPES pH 7.4) was dispensed into solid black 1536-well plates. Twenty-three nL compound was transferred to the assay plate after which 2 uL/well of 60 uM ODS in reagent buffer was dispensed for a final assay volume of 4 uL /well. Following 15 hours of incubation at 37 C, fluorescence was detected by an Envision (Perkin Elmer) using 450/8 nm excitation and 510/23 nm emission.\nKeywords: NIH Roadmap, MLSCN, MLI, MLSMR, qHTS, NCGC, Alzheimer's disease, Neurofibrillary lesions, tau, tubulin assembly, microtubule stability, cytoskeletal integrity, fibrillization, thioflavin dyes, Amyloidgenic"}
{"compound": "CN(O)/C=c1/ccc2c(n1)C(=O)C=CC=2", "Potency": "inactive"}
{"compound": "CC1=C(C(=O)Nc2ccccc2)C(c2ccc(C)o2)n2c(s/c(=C\\c3ccco3)c2=O)=N1", "note": "(centres undefined)", "Potency": "active: 2.51 µM"}
{"compound": "COc1c(-c2ccc(O)c(O)c2)oc2cc(O)cc(O)c2c1=O", "Potency": "inconclusive: 39.8 µM [decreasing]"}
{"compound": "Nc1nc(NCCc2ccc(O)cc2)nc2nc(-c3ccco3)nn12", "Potency": "active: 31.6 µM"}
{"compound": "CCc1c(C)nc(SCC(=O)Nc2cccc(Br)c2)[nH]c1=O", "Potency": "inconclusive: 31.6 µM [decreasing]"}
{"compound": "CC1=C(C)CS(=O)N(S(=O)(=O)c2ccc(Cl)cc2)C1", "note": "(centres undefined)", "Potency": "inconclusive: 39.8 µM [decreasing]"}
{"compound": "C[C@@](N)(C(=O)O)c1ccc(P(=O)(O)O)cc1", "Potency": "inconclusive: 39.8 µM [decreasing]"}
{"compound": "CC(C)(N)CO[C@H]1C[C@H]2CC[C@@]1(C)C2(C)C", "activity change, negative = inhibition": "inactive: -13.8% [at 11.4 µM]"}
{"compound": "COc1cccc(-c2cc(C(F)(F)F)n3ncc(C(=O)NCC4CCCO4)c3n2)c1", "note": "(centres undefined)", "Potency": "inconclusive: 12.6 µM [decreasing]"}
{"compound": "N[C@H](C(=O)O)c1cc(O)cc(O)c1", "Potency": "inconclusive: 39.8 µM [decreasing]"}
{"compound": "Cc1cccc(C#Cc2ccccc2)n1", "Potency": "inconclusive: 39.8 µM [decreasing]"}
{"compound": "CC1Cc2nc(SCC(=O)Nc3nccs3)n(C)c(=O)c2S1", "note": "(centres undefined)", "Potency": "inconclusive: 25.1 µM [decreasing]"}
{"compound": "CCCCn1c(SCC(=O)NCC2CCCO2)nc2ccc(N3CCOCC3)cc2c1=O", "note": "(centres undefined)", "Potency": "active: 15.8 µM"}
{"compound": "Cc1c(NC(=O)CN2c3cccc4cccc(c34)S2(=O)=O)c(=O)n(-c2ccccc2)n1C", "Potency": "inactive"}
{"compound": "O=C1C(Cl)=C(N2CCCCCC2)C(=O)N1c1ccccc1", "Potency": "inactive"}
{"compound": "CC(C)c1nc(SCC(=O)N2CCCC2)c2ccccc2n1", "Potency": "inactive"}
{"compound": "Nc1cccc(-c2nc3ccc(N)cc3s2)c1", "Potency": "inconclusive: 25.1 µM [decreasing]"}
{"compound": "O=C1c2ccccc2C(=O)C12Cc1ccccc1N1CCN(c3ccccc3)CC12", "note": "(centres undefined)", "Potency": "active: 10 µM"}
{"compound": "COc1cc(NC(=O)c2ccc(C)cc2)c(OC)cc1NC(=O)CN1CCOCC1", "Potency": "inactive"}
{"compound": "O=c1c2c3nc4ccccc4nc3n(-c3ccc4c(c3)OCCO4)c2ncn1CC1CCCO1", "note": "(centres undefined)", "Potency": "inconclusive: 3.16 µM [decreasing]"}
{"compound": "O=C(O)C1=CCCNC1", "Potency": "inconclusive: 39.8 µM [decreasing]"}
{"compound": "O=c1cc(-c2ccc(O)c(O)c2)oc2cc(O[C@@H]3O[C@@H](CO)[C@@H](O)[C@@H](O)[C@H]3O)cc(O)c12", "Potency": "inconclusive: 39.8 µM [decreasing]"}
{"compound": "Cc1cccc2cc(COC(=O)c3ccccn3)c(=O)[nH]c12", "Potency": "inactive"}
{"compound": "CC1=C(C(=O)OCC(C)C)C(c2ccc(F)cc2)NC(=O)N1", "note": "(centres undefined)", "Potency": "inconclusive: 39.8 µM [decreasing]"}
{"compound": "O=c1c2ccccc2oc2nc(-c3ccco3)n(Cc3ccccc3)c(=O)c12", "Potency": "active: 20 µM"}
{"compound": "COc1cc(NC(=O)Nc2ccccc2)c(OC)cc1NC(=O)CN1CCCCC1", "Potency": "inconclusive: 31.6 µM [decreasing]"}
{"compound": "COc1ccc(OC)c(NC2c3ccccc3C(=O)N2c2cccnc2)c1", "note": "(centres undefined)", "Potency": "inconclusive: 12.6 µM [decreasing]"}
{"compound": "O=S(=O)(NCCC1=CCCCC1)c1cccc2nsnc12", "Potency": "inconclusive: 31.6 µM [decreasing]"}
{"compound": "NC1(C(=O)O)CC(C(=O)O)C1", "note": "(centres undefined)", "Potency": "inconclusive: 39.8 µM [decreasing]"}
{"compound": "Oc1c(C(c2ccccc2)N2CCCCC2)sc2ncnn12", "note": "(centres undefined)", "Potency": "inactive"}
{"compound": "O=[N+]([O-])c1ccc2c(c1)c(S(=O)(=O)O)cc1nonc12", "activity change, negative = inhibition": "inactive: 5.8% [at 11.4 µM]"}
{"compound": "N=C(N)C(N=Nc1ccccc1)C(=N)N", "note": "(centres undefined)", "Potency": "inconclusive: 3.16 µM [decreasing]"}
{"compound": "Cc1ccc(-c2csc3nnc(SCC(=O)N4CCN(Cc5ccccc5)CC4)n23)cc1", "Potency": "active: 20 µM"}
{"compound": "CCN(CC(=O)O)C(=O)c1cccnc1", "activity change, negative = inhibition": "inactive: 12.3% [at 11.4 µM]"}
{"compound": "Cc1onc(-c2ccccc2)c1C(=O)Nc1nnc(N2CCCCCC2)s1", "Potency": "inconclusive: 39.8 µM [decreasing]"}
{"compound": "N[C@H](Cn1ccc(=O)c(O)c1)C(=O)O", "Potency": "inconclusive: 39.8 µM [decreasing]"}
{"compound": "CCC(=O)Nc1ccc(Nc2ccccc2)cc1", "Potency": "inconclusive: 25.1 µM [decreasing]"}
{"compound": "COc1ccc(-c2nc(C#N)c(NCCN(C)C)o2)cc1", "Potency": "inactive"}
{"compound": "O=C(c1cnn2c(C(F)(F)F)cc(-c3ccco3)nc12)N1CCCc2ccccc21", "Potency": "inconclusive: 3.16 µM [decreasing]"}
{"compound": "CCN1C(=O)c2cccc3c(S(=O)(=O)Nc4nc(C)cs4)ccc1c23", "Potency": "inactive"}
{"compound": "CCN1CCC[C@H]1CNC(=O)c1c(OC)ccc(Br)c1OC", "Potency": "inconclusive: 39.8 µM [decreasing]"}
{"compound": "CN(C)CC[C@@H](C(=O)C(C)(C)C)c1ccccn1", "activity change, negative = inhibition": "inactive: 10.3% [at 11.4 µM]"}
{"compound": "CN(C)c1ccc(/C=C2/C(=O)Nc3ccccc32)cc1", "Potency": "active: 3.98 µM and active: 1 µM"}
{"compound": "O=C1CC(c2ccc3c(c2)OCO3)Sc2nc3ccccc3n21", "note": "(centres undefined)", "Potency": "inactive"}
{"compound": "N[C@@]1(C(=O)O)CN[C@H](C(=O)O)C1", "Potency": "inconclusive: 39.8 µM [decreasing]"}
{"compound": "Cc1ccccc1-c1noc(-c2ccc(O)cc2)n1", "Potency": "inconclusive: 2.51 µM [decreasing]"}
{"compound": "C[C@@H]([C@H](O)c1ccc(O)cc1)N1CCC(Cc2ccccc2)CC1", "Potency": "inconclusive: 39.8 µM [decreasing]"}
{"compound": "Cn1c(SCCOc2ccccc2Cl)nnc1-c1ccncc1", "Potency": "inactive"}
{"compound": "CCCc1ccc(Oc2c(-c3ccc(O)c(C)c3O)n[nH]c2C)cc1", "Potency": "inconclusive: 3.98 µM [decreasing]"}
{"compound": "COc1cccc(Cn2c(=O)c(C)nc3cnc(OCc4ccccc4)nc32)c1", "Potency": "active: 31.6 µM"}
{"compound": "Fc1ccc(NCc2cn3ccccc3n2)cc1", "Potency": "inactive"}
{"compound": "CS(=O)(=O)c1ccc(Cn2c3c(c4cc(F)cc(F)c42)CCC[C@H]3CC(=O)O)cc1", "Potency": "inconclusive: 39.8 µM [decreasing]"}
{"compound": "Cc1ccc(-c2[nH]nc3c2C(c2cccnc2)C(C#N)=C(N)O3)cc1", "note": "(centres undefined)", "Potency": "inactive"}
{"compound": "c1ccc(CN2CCC3(CCc4ccccc43)CC2)cc1", "Potency": "inconclusive: 39.8 µM [decreasing]"}
{"compound": "CC(=O)O[C@H](CC(=O)O)C[N+](C)(C)C", "Potency": "active: 39.8 µM"}
{"compound": "Cc1cccc(C(C)(C)C)c1OCCn1ccnc1", "Potency": "inconclusive: 20 µM [decreasing]"}
{"compound": "CC1(C)CC[C@]2(C(=O)O)CC[C@]3(C)C(=CC[C@@H]4[C@@]5(C)CC[C@H](O)C(C)(C)[C@@H]5CC[C@@]43C)[C@@H]2C1", "Potency": "inconclusive: 39.8 µM [decreasing]"}
{"compound": "Cc1nn(C(=O)c2cccs2)c(N)c1-c1ccccc1", "Potency": "inconclusive: 31.6 µM [decreasing]"}
{"compound": "Nc1c(S(=O)(=O)c2cccc(Cl)c2)c2nc3ccccc3nc2n1/N=C/c1ccc(O)c(O)c1", "Potency": "inconclusive: 1.58 µM [decreasing]"}
{"compound": "O=C(c1ccncc1)N1CCC2(CCN(Cc3ccccc3)CC2)CC1", "Potency": "inactive"}
{"compound": "O=S(=O)(NCCNC/C=C\\c1ccc(Br)cc1)c1cccc2cnccc12", "Potency": "inactive"}
{"compound": "COc1cccc(Cn2c(=O)c(-c3ccc(F)cc3)nc3cnc(N4CCNCC4)nc32)c1", "Potency": "inconclusive: 3.16 µM [decreasing]"}
{"compound": "COc1ccccc1NS(=O)(=O)c1cc(Cl)ccc1OC", "Potency": "inactive"}
{"compound": "CCCn1c(-c2ccc(F)cc2)nc2c(NC(C)CCCN(CC)CC)nc(C)nc21", "note": "(centres undefined)", "Potency": "inconclusive: 10 µM [decreasing]"}
{"compound": "FC(F)C(F)(F)C1=CC(c2ccccc2)=NCCN1", "Potency": "active: 12.6 µM"}
{"compound": "Cc1ccc2nc3ccc(N4CCCC4)nn3c(=O)c2c1", "Potency": "inactive"}
{"compound": "CCn1nc(C(=O)O)c(=O)c2cc3c(cc21)OCO3", "Potency": "inconclusive: 39.8 µM [decreasing]"}
{"compound": "COc1ccc(N2CSC3=C(C#N)C(c4ccc(OC)c(OC)c4)CC(=O)N3C2)c(OC)c1", "note": "(centres undefined)", "Potency": "active: 20 µM"}
{"compound": "Cc1cc2cc(CN3C(=O)c4ccccc4C3=O)ccc2n1C", "Potency": "active: 20 µM"}
{"compound": "CSCC[C@H](NC(=O)NCc1cccs1)C(=O)O", "Potency": "inconclusive: 0.2 µM [decreasing]"}
{"compound": "N[C@]1(C(=O)O)CCc2cc(C(=O)O)ccc21", "Potency": "inconclusive: 39.8 µM [decreasing]"}
{"compound": "COc1ccc(N(CC(=O)NCCSc2ccccn2)S(C)(=O)=O)cc1Cl", "Potency": "inconclusive: 39.8 µM [decreasing]"}
{"compound": "CCOc1ccc(NCCC(=O)c2ccc3c(c2)OCO3)cc1", "Potency": "active: 25.1 µM"}
{"compound": "Cn1cccc1C(=O)N1CCC[C@@]2(CCN(C(c3ccccc3)c3ccccc3)C2)C1", "Potency": "inactive"}
{"compound": "O=C(NCCO[N+](=O)[O-])c1cccnc1", "Potency": "inconclusive: 39.8 µM [decreasing]"}
{"compound": "Cc1noc(C)c1S(=O)(=O)N1CCC(C(=O)N2CCN(C(=O)c3ccco3)CC2)CC1", "Potency": "inactive"}
{"compound": "CC(=O)Nc1ccccc1-c1nc2ccc(C(=O)N3CCN(c4ccccc4)CC3)cc2[nH]c1=O", "Potency": "active: 15.8 µM"}
{"compound": "CCOC(=O)CC(=O)CSc1nc2c(sc(=S)n2-c2ccccc2)c(=O)[nH]1", "Potency": "inactive"}
{"compound": "Cc1ccc(C)c(N2CCN(C(c3ccncc3)c3nnnn3Cc3ccccc3)CC2)c1", "note": "(centres undefined)", "Potency": "inconclusive: 39.8 µM [decreasing]"}
{"compound": "CCOCCCn1c(=N)c(C(=O)NCc2ccc3c(c2)OCO3)cc2c(=O)n3cccc(C)c3nc21", "Potency": "active: 0.631 µM"}
{"compound": "Brc1ccc(-c2nn3c(-c4ccccn4)nnc3s2)o1", "Potency": "inconclusive: 6.31 µM [decreasing]"}
{"compound": "N#CCSc1nc2cc(C(=O)N3CCC(C(N)=O)CC3)ccc2c2nc3ccccc3n12", "Potency": "inactive"}
{"compound": "Nc1nc2ccc(Cl)cc2c2nc(-c3ccco3)nn12", "Potency": "inactive"}
{"compound": "NCCOc1ccccc1-c1ccccc1", "Potency": "inconclusive: 25.1 µM [decreasing]"}
